For one assay, the system named is HSkMC. Put plainly: cytotoxicity call (relative viability < 0.9). Particulars: 10 µM.
Another assay relates to HepG2. Briefly: cytotoxicity call (relative viability < 0.9). The conditions noted are these: 10 µM.
The subject of the next assay is S. aureus RN4220. Briefly: growth inhibition call (relative growth <= 0.2). Particulars: 50 µM.

The list shows a part of the results.

Consider `O=C(Nc1ccc(C(F)(F)F)cc1)Nc1ccc2c(c1)[C@H]1C[C@H](CC(=O)N3CCc4ccccc4C3)O[C@H](CO)[C@H]1O2`, for which the cytotoxicity call with HSkMC is “active”. Further, the cytotoxicity call in the assay with HepG2 was “inactive”. Besides, the growth inhibition call with S. aureus RN4220 is “inactive”.

As for `CCOC(=O)c1cc(=O)c2cc([C@@H]3CC(=O)N(C(=O)OCc4ccccc4)[C@@H]3C(=O)Nc3cccc4cccnc34)ccc2o1`, the cytotoxicity call with HSkMC and with HepG2 was “inactive” each time. Moreover, the growth inhibition call in the assay with S. aureus RN4220 was “inactive”.

For the molecule `C[C@@H]1CCCCO[C@@H](CN(C)C(=O)c2ccccc2)[C@H](C)CN([C@@H](C)CO)C(=O)c2cc(NS(=O)(=O)c3cccs3)ccc2O1`, the cytotoxicity call with HSkMC and with HepG2 was “inactive” each time. The growth inhibition call in the assay with S. aureus RN4220 was “inactive”.

Turning to `O=C(NCCN1CCOCC1)C(=O)Nc1cc2c3c(c1)CCN3C(=O)CC2`, the cytotoxicity call in the assay with HSkMC and in the assay with HepG2 was “inactive” throughout. Besides, in the assay on S. aureus RN4220, the growth inhibition call was “inactive”.

For the molecule `C[C@H]1CN([C@@H](C)CO)C(=O)c2cc(NS(=O)(=O)c3ccccc3)ccc2O[C@@H]1CN(C)S(=O)(=O)c1ccccc1`, the cytotoxicity call with HSkMC and in the assay with HepG2 was “inactive” throughout. Also, the growth inhibition call with S. aureus RN4220 is “inactive”.

Take `O=C(O)[C@@H]1CCCNC1`: the cytotoxicity call with HSkMC and in the assay with HepG2 was “inactive” throughout. The growth inhibition call in the assay with S. aureus RN4220 was “inactive”.

`C[C@@H]1CN([C@@H](C)CO)C(=O)c2cc(C#CC3(O)CCCC3)cnc2O[C@@H]1CN(C)C(=O)C1CCCCC1`: the cytotoxicity call in the assay with HSkMC and in the assay on HepG2 was “inactive” each time. The growth inhibition call in the assay with S. aureus RN4220 was “inactive”.

In the case of `O=C(O)c1cccnc1`, the cytotoxicity call in the assay on HSkMC and with HepG2 was “inactive” in each case. Moreover, in the assay on S. aureus RN4220, the growth inhibition call was “inactive”.

As for `Cn1c(=O)n(C)c2cc(CN)ccc21`, the cytotoxicity call with HSkMC and with HepG2 was “inactive” throughout. In addition, the growth inhibition call with S. aureus RN4220 is “inactive”.

Turning to `C[C@H](CO)N1C[C@H](C)[C@@H](CN(C)S(=O)(=O)c2ccccc2)Oc2ccc(NS(C)(=O)=O)cc2C1=O`, the cytotoxicity call in the assay on HSkMC and with HepG2 was “inactive” in each case. In the assay with S. aureus RN4220, the growth inhibition call was “inactive”.

With `C[C@@H]1CN([C@@H](C)CO)C(=O)Cc2cc(NC(=O)Nc3ccc(F)cc3)ccc2O[C@@H]1CN(C)Cc1ccc(-c2ccccc2)cc1`, the cytotoxicity call in the assay on HSkMC was “inactive”. Besides, in the assay on HepG2, the cytotoxicity call is “active”. In addition, in the assay with S. aureus RN4220, the growth inhibition call was “inactive”.

In the case of `C[C@@H]1CCCCO[C@@H](CN(C)Cc2ccncc2)[C@@H](C)CN([C@@H](C)CO)C(=O)c2cc(NC(=O)NC3CCCCC3)ccc2O1`, the cytotoxicity call in the assay with HSkMC and in the assay on HepG2 was “inactive” each time. Moreover, the growth inhibition call in the assay with S. aureus RN4220 is “inactive”.

Regarding `O=C(C[C@H]1C[C@H]2c3cc(NS(=O)(=O)c4ccc(F)cc4)ccc3O[C@H]2[C@@H](CO)O1)NCc1ccccc1F`, the cytotoxicity call in the assay with HSkMC and in the assay on HepG2 was “inactive” throughout. The growth inhibition call in the assay with S. aureus RN4220 is “inactive”.

Turning to `C[C@@H]1CN([C@H](C)CO)C(=O)c2cccc(NC(=O)Nc3ccc4c(c3)OCO4)c2O[C@H]1CN(C)Cc1ccc(C(=O)Nc2ccccc2N)cc1`, the cytotoxicity call with HSkMC and in the assay with HepG2 was “inactive” throughout. In addition, the growth inhibition call in the assay with S. aureus RN4220 was “inactive”.

For the molecule `CN(C)CCCN1c2ccccc2CCc2ccc(Cl)cc21.Cl`, the cytotoxicity call in the assay on HSkMC and with HepG2 was “inactive” in each case. The growth inhibition call with S. aureus RN4220 was “inactive”.

Consider `CC(C)NC(=O)N(C)C[C@@H]1Oc2ccc(NS(=O)(=O)c3cccs3)cc2CC(=O)N([C@H](C)CO)C[C@H]1C`, for which the cytotoxicity call in the assay on HSkMC and with HepG2 was “inactive” each time. The growth inhibition call with S. aureus RN4220 was “inactive”.

Regarding `CC(C)NC(=O)N(C)C[C@H]1Oc2ccc(NS(=O)(=O)c3ccc(Cl)cc3)cc2CC(=O)N([C@@H](C)CO)C[C@H]1C`, the cytotoxicity call in the assay with HSkMC and in the assay with HepG2 was “inactive” in each case. In addition, in the assay with S. aureus RN4220, the growth inhibition call was “inactive”.

Regarding `C[C@H](CO)N1C[C@H](C)[C@@H](CN(C)C(=O)Cc2ccccn2)Oc2cc(-c3ccc(C(=O)N(C)C)cc3)ccc2S1(=O)=O`, the cytotoxicity call with HSkMC and in the assay on HepG2 was “inactive” each time. Besides, the growth inhibition call with S. aureus RN4220 was “inactive”.

For `COC(=O)[C@@H](NC(=O)Cn1cc(CCC(=O)NO)nn1)c1ccccc1`, the cytotoxicity call in the assay on HSkMC and with HepG2 was “inactive” throughout. Moreover, the growth inhibition call in the assay with S. aureus RN4220 was “inactive”.

With `O=C(C[C@@H]1CC[C@@H]2[C@H](COC[C@H](O)CN2C(=O)Nc2ccc(Cl)c(Cl)c2)O1)NCc1ccncc1`, the cytotoxicity call in the assay on HSkMC (human skeletal muscle cells) and in the assay on HepG2 was “inactive” each time. Besides, in the assay on S. aureus RN4220, the growth inhibition call is “inactive”.

With `CC(C)NC(=O)Nc1ccc2c(c1)C(=O)N([C@@H](C)CO)C[C@H](C)[C@H](CN(C)Cc1ccc(C(F)(F)F)cc1)OCCCC[C@@H](C)O2`, in the assay with HSkMC, the cytotoxicity call is “inactive”. Besides, the cytotoxicity call in the assay on HepG2 is “active”. In addition, the growth inhibition call with S. aureus RN4220 is “inactive”.

As for `Cc1noc(C)c1S(=O)(=O)Nc1cccc2c1O[C@H](CN(C)C(=O)Nc1ccc3c(c1)OCO3)[C@H](C)CN([C@H](C)CO)C2=O`, the cytotoxicity call with HSkMC and in the assay with HepG2 was “inactive” in each case. Moreover, the growth inhibition call with S. aureus RN4220 is “inactive”.

Regarding `NC(=O)CC(N)C(=O)O.O` (stereo unspecified), the cytotoxicity call in the assay with HSkMC and in the assay with HepG2 was “inactive” throughout. For the same molecule, in the assay on S. aureus RN4220, the growth inhibition call is “inactive”.

Turning to `C[C@H]1CN([C@@H](C)CO)C(=O)Cc2cc(NC(=O)c3ccncc3)ccc2O[C@@H]1CN(C)Cc1ccc(C(=O)O)cc1`, the cytotoxicity call with HSkMC and with HepG2 was “inactive” each time. For the same molecule, in the assay on S. aureus RN4220, the growth inhibition call is “inactive”.

As to `CCCNC(=O)N(C)C[C@@H]1Oc2cc(C#Cc3cccc(F)c3)ccc2S(=O)(=O)N([C@H](C)CO)C[C@@H]1C`, the cytotoxicity call in the assay with HSkMC and in the assay on HepG2 was “inactive” in each case. Besides, the growth inhibition call in the assay with S. aureus RN4220 was “inactive”.

On to `C[C@H](CO)N1C[C@H](C)[C@H](CN(C)Cc2ccc3c(c2)OCO3)Oc2ncc(C#CCN(C)C)cc2C1=O`, for which the cytotoxicity call in the assay with HSkMC and in the assay with HepG2 was “inactive” in each case. For the same molecule, in the assay with S. aureus RN4220, the growth inhibition call was “inactive”.

`C[C@@H]1CN([C@@H](C)CO)S(=O)(=O)c2ccc(C#CC3(O)CCCC3)cc2O[C@@H]1CN(C)C(=O)c1ccccc1`: the cytotoxicity call in the assay with HSkMC and in the assay with HepG2 was “inactive” throughout. The growth inhibition call in the assay with S. aureus RN4220 was “inactive”.
